{
  "source": "the supplement of paper PMC10338343",
  "note": "± gives the standard deviation. The full ranking holds about 6,600 sequences; the median of “pre-steady-state target cleavage rate” is about 0.07, and the highest 2% start at about 0.72. This is a selection; strong and weak results do not stand in their true shares.",
  "data": [
    {"tested_on": "MIWI (PIWIL1) piRISC loaded with Kctd7 piRNA (30 nt)", "experiment": "pre-steady-state target cleavage rate (min^-1); MIWI and MILI are mouse PIWI proteins and EfPiwi is from a freshwater sponge; tags in brackets are library labels; higher = faster piRNA-guided slicing of the target", "settings": "guide: Kctd7 piRNA 5'p-UGUUAAUCUCUCAGAGAAGGUGACAGUGAU; auxiliary factor: 500 nM mouse GTSF1", "protocol": "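Cleave-'n-Seq: a library of target RNAs (target site embedded in constant flanks, ACAGCATTCCGCGTTAGTGATATCCG... 5' flank; DNA-blocked outside the site) at 0.1 nM was incubated with 1 nM active mouse MILI or MIWI piRISC (synthetic 5'-monophosphorylated piRNA guide) with or without 500 nM mouse GTSF1 at 33 °C for 1 min to 16 h. Uncleaved targets were sequenced and normalised to non-target controls, and the pooled three trials were fitted to a burst-and-steady-state model to give the pre-steady-state cleavage rate (min^-1; k3 is constrained to at most 1e-4). Sequence is the target site only; target names encode pairing extent (gX:gY) and contiguous / 1-mismatch / 2-mismatch / bulge geometry. Fits with R² ≤ 0 are excluded.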", "values": [
      {"sequence": "UAGUCUGUCACCAUCUCUGAGAGAUUAUCA", "pre-steady-state target cleavage rate": "0.189 ± 0.026"},
      {"sequence": "AUCACUGCACCUUCUCUGAGAGAUUAACA", "pre-steady-state target cleavage rate": "0.68 ± 0.045"},
      {"sequence": "UAGUGACUCACCAUCUCUGAGAGAUAAACA", "pre-steady-state target cleavage rate": "0.0891 ± 0.0099"},
      {"sequence": "UACACUGUCACCUUCUCGAGAGAUUAACA", "pre-steady-state target cleavage rate": "0.0886 ± 0.016"},
      {"sequence": "UUCACUGUCACCUUCUCUGACUGAUUAACA", "pre-steady-state target cleavage rate": "0.0255 ± 0.0062"},
      {"sequence": "UAGUGACACACCUUGUCUGAGAGAUUAACA", "pre-steady-state target cleavage rate": "0.135 ± 0.021"},
      {"sequence": "AUCACUGUCACCUUCUCUGAGAGAUUGAACA", "pre-steady-state target cleavage rate": "0.338 ± 0.046"},
      {"sequence": "UAGUCUGUCACCUUCUCAGAGAGUUUAACA", "pre-steady-state target cleavage rate": "0.247 ± 0.044"},
      {"sequence": "UAGACUGUCACCGUUCUCUGAGAGAUUAACA", "pre-steady-state target cleavage rate": "0.625 ± 0.041"},
      {"sequence": "UAGUGACUCACCUUCUCUGAGUGAUUUACA", "pre-steady-state target cleavage rate": "0.00692 ± 0.0028"},
      {"sequence": "UAGUGACUCACCUUCACUGAGAGAUUAACA", "pre-steady-state target cleavage rate": "0.269 ± 0.026"},
      {"sequence": "AUGACUGUCACCUUCUCAGAGAGAUUAACA", "pre-steady-state target cleavage rate": "0.4 ± 0.025"},
      {"sequence": "AUCACUGACACCAUCUCUGAGAGAUUAACA", "pre-steady-state target cleavage rate": "0.603 ± 0.037"},
      {"sequence": "UAGUGUGAGUCCUUCUCUGAGAGAUUAAGA", "pre-steady-state target cleavage rate": "0.0404 ± 0.0072"},
      {"sequence": "UAGUGACACACCUUCUCUGAGCGAUUAACA", "pre-steady-state target cleavage rate": "0.0915 ± 0.015"},
      {"sequence": "UAGUGUGUCACCUUCUCUGAGAGAGUAACA", "pre-steady-state target cleavage rate": "0.394 ± 0.046"},
      {"sequence": "UAGACUCAGACCUUCUCUGAGAGAUUAAGA", "pre-steady-state target cleavage rate": "0.03 ± 0.0059"},
      {"sequence": "UUCACUGUCACGUUCUCUGAGUGAUUAACA", "pre-steady-state target cleavage rate": "0.0184 ± 0.0031"},
      {"sequence": "UAGUGACUCACCUUCUCUGAGAGAAAAAGA", "pre-steady-state target cleavage rate": "0.00503 ± 0.003"},
      {"sequence": "UAGUGAGUCACCUUCUCUGAGAGAAUAACA", "pre-steady-state target cleavage rate": "0.361 ± 0.059"},
      {"sequence": "AUCACUGUCUGGUUCUCUGAGAGAUUAUGA", "pre-steady-state target cleavage rate": "0.00392 ± 0.0027"},
      {"sequence": "UAGUGACUCACCUUCUCUCAGAGAUUUACA", "pre-steady-state target cleavage rate": "0.0234 ± 0.0072"},
      {"sequence": "UACUCUGUCACCUUCUCUGACAGAUUAACA", "pre-steady-state target cleavage rate": "0.205 ± 0.015"},
      {"sequence": "AUCACUGUCUCCUUCUCUCAGAGAUUAACA", "pre-steady-state target cleavage rate": "0.124 ± 0.011"},
      {"sequence": "UACACUGUCACCUUCUCUGAGAGUAUUUGA", "pre-steady-state target cleavage rate": "0.0918 ± 0.025"},
      {"sequence": "UAGUGACACACCUUCCUCUGAGAGAUUAACA", "pre-steady-state target cleavage rate": "0.0665 ± 0.012"},
      {"sequence": "AACACUGUCACCUUCUCUGAGAGAUAUUGA", "pre-steady-state target cleavage rate": "0.0742 ± 0.021"},
      {"sequence": "UAGUGAGUCACCUUCUCAGAGUGAUUAACA", "pre-steady-state target cleavage rate": "0.0184 ± 0.0068"},
      {"sequence": "UUCACAGUCACCUUCUCUGAGAGAUUUACA", "pre-steady-state target cleavage rate": "0.321 ± 0.043"},
      {"sequence": "UAGACUGUCACCUUCAGUGAGAGAUUAUGA", "pre-steady-state target cleavage rate": "0.00378 ± 0.0033"},
      {"sequence": "UAGUGACAGUCCUUCUCUGAGAGAUCAACA", "pre-steady-state target cleavage rate": "0.035 ± 0.006"},
      {"sequence": "UAGUGACAGUGGAUCUCUGAGAGCAUUAACA", "pre-steady-state target cleavage rate": "< 0.0001"},
      {"sequence": "UUCACUGUCACCUUGUCUGAGAGAUUAAGA", "pre-steady-state target cleavage rate": "0.481 ± 0.11"},
      {"sequence": "UAGUGUGUCACCUUCGUCUGAGAGAUUAACA", "pre-steady-state target cleavage rate": "0.0473 ± 0.011"},
      {"sequence": "UAGUGACAGACCUUCUCUGAGUGAUUUACA", "pre-steady-state target cleavage rate": "0.00486 ± 0.0026"},
      {"sequence": "UAGACUAUCACCUUCUCUGAGAGAUUAACA", "pre-steady-state target cleavage rate": "0.56 ± 0.026"},
      {"sequence": "AUCACUGUCUCCUUCUCUGAGUGAUUAACA", "pre-steady-state target cleavage rate": "0.0296 ± 0.0065"},
      {"sequence": "UAGUGACUCACCUUCUCUGGGAGAUUAACA", "pre-steady-state target cleavage rate": "0.308 ± 0.017"},
      {"sequence": "UAGACUGUCACCUUCUCUGAGAGAUUAAGCA", "pre-steady-state target cleavage rate": "0.252 ± 0.032"},
      {"sequence": "UAGACUGUCACCUUCUCUGUGAGAUUAACA", "pre-steady-state target cleavage rate": "0.28 ± 0.0096"},
      {"sequence": "UAGUGACACACCUUCUUUGAGAGAUUAACA", "pre-steady-state target cleavage rate": "0.135 ± 0.016"},
      {"sequence": "UAGUGAGUCACCUUCUCUGAGAGAUAUAACA", "pre-steady-state target cleavage rate": "0.406 ± 0.044"},
      {"sequence": "UUCACUGAGUCCUUCUCUGAGAGAUUAUGA", "pre-steady-state target cleavage rate": "0.0295 ± 0.0073"},
      {"sequence": "UAGUGAGUCACCUACUCUGAGAGUUUAACA", "pre-steady-state target cleavage rate": "0.192 ± 0.032"},
      {"sequence": "UAGUGUGUCACCAUCUCUGAGAGAUAAACA", "pre-steady-state target cleavage rate": "0.243 ± 0.032"},
      {"sequence": "UAGUGUGACACGUUCUCUGAGAGAUUAACA", "pre-steady-state target cleavage rate": "0.571 ± 0.043"},
      {"sequence": "UACUGAGUCACCUUCUCUGAGAGAUUAAGA", "pre-steady-state target cleavage rate": "0.207 ± 0.036"},
      {"sequence": "UAGUCUCUCACGUUCUCUGAGAGAUUAACA", "pre-steady-state target cleavage rate": "0.0195 ± 0.0042"},
      {"sequence": "AACACUGACACCUUCUCUGAGAGAUUAACA", "pre-steady-state target cleavage rate": "0.595 ± 0.03"},
      {"sequence": "AUCACUGAUCACCUUCUCUGAGAGAUUAACA", "pre-steady-state target cleavage rate": "0.703 ± 0.056"},
      {"sequence": "UACACUGUCACCUUCUCUGAGAGAUUUUGA", "pre-steady-state target cleavage rate": "0.0689 ± 0.019"},
      {"sequence": "UAGUGACUCAGCUUCUGUGAGAGAUUAACA", "pre-steady-state target cleavage rate": "0.0815 ± 0.013"},
      {"sequence": "UAGUGUGUCUGCUUCUCUGAGAGAUUAACA", "pre-steady-state target cleavage rate": "0.476 ± 0.032"},
      {"sequence": "UAGUCUCUCACCAUCUCUGAGAGAUUAACA", "pre-steady-state target cleavage rate": "0.0365 ± 0.0075"},
      {"sequence": "UAGUCUCUCACCUUCUCAGAGAGAUUAACA", "pre-steady-state target cleavage rate": "0.0576 ± 0.0061"},
      {"sequence": "UAGUGACUCACCUGUCUCUGAGAGAUUAACA", "pre-steady-state target cleavage rate": "0.106 ± 0.013"},
      {"sequence": "UAGACAGUCACCUUCUCAGAGAGAUUAACA", "pre-steady-state target cleavage rate": "0.437 ± 0.026"},
      {"sequence": "AUCACUGUCACCUUCUCUCACAGAUUAACA", "pre-steady-state target cleavage rate": "0.0162 ± 0.005"},
      {"sequence": "UAGUGUGUCACCUUCUCACUGAGAUUAACA", "pre-steady-state target cleavage rate": "0.00629 ± 0.0042"},
      {"sequence": "UAGACUGUACCUUCUCUGAGAGAUUAACA", "pre-steady-state target cleavage rate": "0.572 ± 0.044"},
      {"sequence": "UUCACUGUCACCUUCUCUGAGAGAUUAACCA", "pre-steady-state target cleavage rate": "0.543 ± 0.031"},
      {"sequence": "UUCACUGUCACCUUCUCACUGAGAUUUUGA", "pre-steady-state target cleavage rate": "0.00456 ± 0.0039"},
      {"sequence": "AUCACUGUCACCUUUCUCUGAGAGAUUAACA", "pre-steady-state target cleavage rate": "0.599 ± 0.034"},
      {"sequence": "UAGUGACACACCUUCUGAGAGAGAUUAACA", "pre-steady-state target cleavage rate": "0.00885 ± 0.0039"},
      {"sequence": "AUCACUGUCACCUUCUCUGAGAGAUAUACA", "pre-steady-state target cleavage rate": "0.25 ± 0.032"},
      {"sequence": "UACACUGUCACGUUCUCUGAGAGAUUAUCA", "pre-steady-state target cleavage rate": "0.188 ± 0.026"},
      {"sequence": "UAGUGACAGUGGUUCUCUCAGAGAUUUACA", "pre-steady-state target cleavage rate": "< 0.0001"},
      {"sequence": "UAGACUCUCAGCUUCUCUGAGAGAUUAACA", "pre-steady-state target cleavage rate": "0.124 ± 0.013"},
      {"sequence": "UUCACUGUCACCUUCUCUGAGUGAUUAUCA", "pre-steady-state target cleavage rate": "0.0392 ± 0.013"},
      {"sequence": "UAGUCUGUCAUCUUCUCUGAGAGAUUAACA", "pre-steady-state target cleavage rate": "0.711 ± 0.036"},
      {"sequence": "UAGUGACUCACCUUCUCUGUCUCUAAUUGA [g12:g23:cont:t1A]", "pre-steady-state target cleavage rate": "< 0.0001"},
      {"sequence": "UAGUCUGUCACCUUCUGUGAGAGAUUAUCA", "pre-steady-state target cleavage rate": "0.0153 ± 0.0063"}
    ]}
  ]
}
